Measured values from PubChem BioAssay AID624296 (National Center for Advancing Translational Sciences (NCATS), 2012).
The campaign covered roughly 350,000 compounds. About 9,900 (2.8%) were called active. The inconclusive results got no clear call from the source; some entries with a clear call stand among them for comparison. Calls follow the shape of the dose curve; as a rule, active = well fitted activation curve with a large enough effect; inconclusive = small, poorly fitted or top-dose-only effect; inactive = no such curve, though single readings can be large or run the other way. No potency is given beside an inconclusive call; the fits are too rough.

test: A quantitative high throughput screen for small molecules that induce DNA re-replication in MCF 10a normal breast cells.; also: nearly all actives have a fitted effect of over 50% in size; as to activity, positive = re-replication: % of control where 0% means no effect; details: MCF 10A DNA re-replication, Hoechst nuclear intensity, 48 h; activity, positive = re-replication: at 46.1 µM (top of the series)
Potency is read from the fitted curve at half-maximal effect; tags tell the direction and shape of the fitted curve.

Row | Compound | activity, positive = re-replication | Potency
1 | COc1ccc(N(C(=O)Cn2nnc3ccccc32)C(C(=O)NCc2ccco2)c2ccncc2)cc1 (centres undefined) | inactive: -35.5% | –
2 | C[C@H](NC(=O)c1[nH]cnc1C(=O)Nc1ccc(Cl)cc1)c1ccccc1 | – | active: 16.4 µM
3 | CCOc1ccc2oc(C(=O)N(C)CCc3ccc(OC)c(OC)c3)c(C)c2c1 | inactive: 13.3% | –
4 | O=C1CSc2ccc(S(=O)(=O)N3CCN(c4ccccc4)CC3)cc2N1 | inactive: 2.5% | –
5 | Cc1cccc2nc(COc3ccc4ccccc4c3Br)cn12 | – | inconclusive [activator, partial curve, poor fit]
6 | CCn1cc(CCCC(=O)NCc2ccc(OC)cc2)c2ccccc21 | inactive: -1.37% | –
7 | COc1ccc(Cc2nnc(SCc3c(C)noc3C)n2C2CCCCC2)cc1OC | – | inconclusive [activator, partial curve, poor fit]
8 | Cc1cc(N2CCN(Cc3nc(-c4ccc(Cl)cc4)oc3C)CC2)cc(C)n1 | – | inconclusive [activator, full curve, poor fit]
9 | Cc1cc(C)nc(Sc2ccc3nnc(C(F)(F)C(F)(F)C(F)(F)F)n3n2)n1 | – | inconclusive [activator, full curve, poor fit]
10 | FC(F)(F)c1cc(-c2ccco2)nc(N2CCN(c3ccccc3)CC2)n1 | – | inconclusive [activator, partial curve]
11 | COC(=O)C1=C(C)n2nnnc2NC1c1ccc(Cl)cc1 (centres undefined) | inactive: 6.14% | –
12 | O=C(CNC(=O)c1cc(Cl)cc([N+](=O)[O-])c1)OCC(=O)N1CCCCC1 | – | inconclusive [activator, single point]
13 | Cc1cc(C)n(-c2nc3ccccc3nc2N2CCN(S(=O)(=O)c3ccc4ccccc4c3)CC2)n1 | inactive: 18.3% | –
14 | Cc1ccc(/C(O)=C2/C(=O)C(=O)N(c3ccccn3)C2c2cccc([N+](=O)[O-])c2)cc1 (centres undefined) | – | inconclusive [activator, full curve]
15 | Nc1[nH]ncc1-c1ccccc1 | – | inconclusive [activator, full curve, poor fit]
16 | COC(=O)CCCCCN1C(=O)NC(c2ccc(-c3ccccc3)cc2)C(C(=O)OCc2ccccc2)=C1C (centres undefined) | – | active: 3.26 µM
17 | Cc1nc2ccc(S(=O)(=O)NC(C(=O)NCc3ccco3)C(C)C)cc2s1 (centres undefined) | – | inconclusive [activator, single point]
18 | CCC(Cc1ccccc1)NC(=O)c1ccc2nc(N3CCOCC3)sc2c1 (centres undefined) | inactive: -0.61% | –
19 | CC1=C(C(=O)OCc2ccc3c(c2)OCO3)C(c2ccccc2OCc2ccccc2)NC(=O)N1 (centres undefined) | – | inconclusive [activator, single point]
20 | CSc1ccc(/C=N/Nc2ccc(Cl)c(C(=O)O)c2)cc1 | inactive: -2.98% | –
21 | Nn1c(SCC(=O)Nc2ccccc2F)nnc1C1CCCCC1 | inactive: 0.0866% | –
22 | COc1ccc(C(=O)n2cnnc2N)cc1 | – | inconclusive [activator, full curve, poor fit]
23 | Cc1cc(=O)[nH]c(SCCCOc2ccccc2Cl)n1 | – | inconclusive [activator, partial curve]

Row | Compound | activity, positive = re-replication | Potency
24 | COc1cccc2c1CCc1c-2nc2ccccc2c1C(=O)O | – | inconclusive [activator, single point]
25 | C=CCOc1ccc(CN(C)CC(=O)Nc2ccc3c(c2)CCC3)cc1 | inactive: 15.4% | –
26 | CCOC(=O)Cn1cnc2c(nnn2-c2ccc(F)cc2)c1=O | inactive: -1.67% | –
27 | Cc1cccc(CN2CCC(C(=O)Nc3cccc(-c4cccc(F)c4)c3)CC2)n1 | – | inconclusive [activator, single point]
28 | N#Cc1c(NCCN)nc(NCc2ccccc2)c2c1CCN(Cc1ccccc1)C2 | – | inconclusive [activator, single point]
29 | CCCN(C(=O)CSc1nnc(N)s1)c1c(N)n(Cc2ccccc2)c(=O)[nH]c1=O | inactive: 0.0358% | –
30 | Cc1cc(C)n2nc(SCc3ncc(-c4ccccc4)o3)nc2n1 | – | inconclusive [activator, partial curve, poor fit]
31 | CC(C)[C@H](NC(=O)c1c(F)cccc1F)C(=O)OCC(=O)NC(=O)NC1CCCC1 | inactive: -3.05% | –
32 | O=C(CN1C(=O)c2ccccc2S1(=O)=O)NCCc1ccc(F)cc1 | – | inconclusive [activator, single point]
33 | C#CCCc1cocc1/C=[N+](\[O-])c1ccc(C(=O)OCC)cc1 | inactive: -3.78% | –
34 | COc1ccccc1C(=O)Nc1ccccc1N1CCCCC1 | – | inconclusive [activator, single point]
35 | O=C(Cc1ccc(Br)cc1)Nc1cccc(-c2cn3c(n2)SCC3)c1 | – | inconclusive [activator, partial curve, poor fit]
36 | Cc1ccc(SCC(=O)OCC(=O)N(CCC#N)c2ccccc2)cc1C | inactive: -0.499% | –
37 | N/C(CCS(=O)(=O)c1ccc(Cl)cc1)=N\OC(=O)c1ccc(Cl)cc1 | inactive: -1.37% | –
38 | CCOc1cc(C(=O)CSc2nnc(CNc3ccc(Cl)cc3)o2)ccc1NC(=O)CC | – | inconclusive [activator, single point]
39 | O=C(Nc1nccs1)C1CC=CCC1C(=O)OCC(F)(F)C(F)F (centres undefined) | – | inconclusive [activator, single point]
40 | FC(F)(F)c1nc(=S)c2ccccc2[nH]1 | – | inconclusive [activator, partial curve, poor fit]
41 | Cc1cc(Cl)c(OCCOCCN2CCCC(C)C2)c(Br)c1 (centres undefined) | – | inconclusive [activator, full curve, poor fit]
42 | CCOC(=O)c1csc(N/N=C2\CCCc3ccccc32)n1 | – | inconclusive [activator, partial curve, poor fit]
43 | COc1ccc(N2CCN(C(=N)/C(C(C)=O)=C(\C)O)CC2)cc1 | inactive: -3.26% | –
44 | c1cncc(-c2nn3c(Cn4nnc5ccccc54)nnc3s2)c1 | inactive: 17.3% | –
45 | C/C(=N\NC(=O)c1nnn(-c2nonc2N)c1-c1ccc2c(c1)OCO2)c1ccc(C)cc1 | – | inconclusive [activator, partial curve, poor fit]
46 | O=C(/C=C/c1ccc(S(=O)(=O)N2CCOCC2)cc1)NC(=S)Nc1ccc(Cl)cc1Cl | – | active: 16.4 µM

Row | Compound | activity, positive = re-replication | Potency
47 | COc1ccc(-n2nc3c(c2NC(=O)c2ccc(S(=O)(=O)N4CCOCC4)cc2)CS(=O)(=O)C3)cc1 | – | inconclusive [activator, single point]
48 | COc1ccc(NC(=O)Cn2nnc(-c3ccccc3NS(=O)(=O)c3ccc(OC)cc3)n2)cc1 | – | inconclusive [activator, single point]
49 | COc1ccc(/C=N/NC(=O)c2ccccc2O)cc1Cn1cc([N+](=O)[O-])cn1 | – | inconclusive [activator, partial curve, poor fit]
50 | CC1C(=O)CC(c2ccc([N+](=O)[O-])cc2)NC1c1ccc([N+](=O)[O-])cc1 (centres undefined) | inactive: -5.96% | –
51 | CCOC(=O)CN(C(=O)c1ccccc1[N+](=O)[O-])C(C)(C)C | – | inconclusive [activator, partial curve, poor fit]
52 | O=C(N/N=C/c1c[nH]c2ccccc12)c1cc2ccccc2o1 | – | inconclusive [activator, partial curve, poor fit]
53 | Cc1cc(C)cc(NC(=O)c2cc(S(=O)(=O)NCc3ccco3)ccc2F)c1 | – | inconclusive [activator, partial curve, poor fit]
54 | O=c1c2ccccc2nc(-c2ccoc2)n1CCc1ccccc1 | – | inconclusive [activator, partial curve, poor fit]
55 | CCOc1ccc(C(=O)c2nc3c(n2O)CCCCC3)cc1 | – | inconclusive [activator, single point]
56 | CC(C)c1nc(SCC(=O)Nc2ccc(N3CCOCC3)cc2)c2ccccc2n1 | – | inconclusive [activator, partial curve, poor fit]
57 | CCc1n[nH]c(=S)n1/N=C/c1ccc(-c2ccc(Br)cc2)o1 | – | active: 18.4 µM
58 | CCOC(=O)C1=C(C)NC2=C(C(=O)CCC2)C1c1cn(Cc2ccc(Cl)cc2Cl)nc1-c1ccccc1 (centres undefined) | – | inconclusive [activator, full curve, poor fit]
59 | CCOC(=O)C1CCN(c2ccc(-c3cccs3)nn2)CC1 | inactive: 1.31% | –
60 | Cc1cc(C)cc(-n2c(C)cc(/C=N/NC(=O)CSc3ncccn3)c2C)c1 | – | active: 18.4 µM
61 | CC(Oc1ccc(F)cc1)C(O)CCN(C)C (centres undefined) | – | inconclusive [activator, single point]
62 | Cc1ccccc1N1C(=O)C(Oc2ccc(Cl)cc2)C1CNC(C)(C)C (centres undefined) | inactive: 11.9% | –
63 | Cc1cc(C)c(S(=O)(=O)Nc2cccc(S(=O)(=O)N3CCOCC3)c2)c(C)c1 | inactive: -43.9% | –
64 | O=C(Nc1ccc(N2CCCC2)cc1)c1ccccc1F | – | inconclusive [activator, partial curve, poor fit]
65 | CCOc1nc(-c2ccccc2)ccc1-c1noc(-c2ccc(OC)c(OC)c2)n1 | – | inconclusive [activator, single point]
66 | COc1ccc([N+](=O)[O-])cc1COc1cc(C)cc2oc(=O)cc(-c3ccccc3)c12 | – | active: 11.6 µM
67 | CN(C)C(CNc1ncnc2sccc12)c1ccccc1 (centres undefined) | inactive: 26.9% | –
68 | COc1ccccc1C(=O)OCC(=O)Nc1cccc(S(=O)(=O)NC2=NCCCCC2)c1 | – | active: 18.4 µM
69 | CC(=O)Nc1cccc(C(=O)NC2CCCc3c2cnn3-c2ccc(C(C)(C)C)cc2)c1 (centres undefined) | – | inconclusive [activator, single point]
